This is an account of results in the RNAGym collection of RNA variant scans (doi:10.1093/nar/gkz1192).

Read counts are not given, so values of variants with three or more changes are uncertain.

Sequences and labels used below:
B1: CPEB3 Ribozyme (parent)
chain: UAACAGGGGGCCACAGCAGAAGCGUUCACGUCGCAGCCCCUGUCAGAUUCUGGUGAAUCUGCGAAUUCUGCUGUAUAUCUC

This data set covers variants of B1. Put plainly: self-cleavage, relative activity (ratio to wild type); higher = more cleavage; in vitro, sequencing. The procedure, abridged: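 After error-prone PCR and barcoding, CPEB3 ribozyme mutant libraries were transcribed with T7 RNA polymerase at 37°C for 5 hours, then given 15 min with DNase I before an EDTA stop, and they cleaved during both steps. Reverse transcription with template switching preceded Illumina sequencing. Relative activity divides a variant's cleaved/total read fraction by the unmutated ribozyme's. At least 5 reads were required per variant, and three batches were averaged.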
U31C A56G U66C: the self-cleavage is 0.37. The figure for G30U A35U U41A A64G is 0.1; for U31A C44U U48A U54C A57G U67A U80C it is 0.03. As to C29A U51A A77G U78C, the self-cleavage amounted to 0.15.

In the case of U31A U41A C62U U72C, the self-cleavage stood at 0.15.

Consider U31A U41A U69C, for which the self-cleavage was found to be 0.07.

On to U31A U48A U60C G73A, for which the self-cleavage stood at 0.08.

Turning to U31A U66C U74A U76C, the self-cleavage is 0.17. Take G30A A35U U54C U58C C59G: the self-cleavage is 0.09. Turning to U31C A35G A45G A64U U66C, the self-cleavage was 0.26. On to U31A A47G A65G U67C A75U, for which the self-cleavage amounted to 0.06. G30A A45G A57G: the self-cleavage worked out at 0.19. Consider C29A U48C U51A U78A, for which the self-cleavage was determined as 0.19. As for G30A U69C U72G A77G, the self-cleavage was found to be 0.11. Next, U31A G36C U72A: 0.33; G30U U31A A35G U41A G61A A64G: 0.13; G30U U58C U76C A77G: 0.4.

For the variant C29U U48C U60A A75G, the self-cleavage was found to be 0.16. Turning to U31A A56G C68A A75U, the self-cleavage stood at 0.15. Next, U31A A35C A45G A47G U76A: 0.24; U31A A57G U67C: 0.17; G30A U41A U60A: 0.21.

With G30C U51C U69A C71G U72A, the self-cleavage is 0.07. The figure for G30C C38U G73A is 0.33; for C29A U43A G52C U54A G73C it is 0.93. Regarding G30A U41C A45U U54G A64G, the self-cleavage amounted to 0.06. In the case of U31A C68U U80C, the self-cleavage came to 0.5.

Turning to C29G A56U A64U U80C, the self-cleavage came out at 0.2. As for U31A A56U U67A, the self-cleavage was 0.14.

For G30A C32U U51C, the self-cleavage came out at 0.12.

As for U31A A35U U58C A65U, the self-cleavage was 0.18. Next, U31A G46U U54C U58A U78G: 0.09.

On to C29G A56U U60A, for which the self-cleavage was found to be 0.14. As to C29G A57U G61A, the self-cleavage was determined as 0.13. Next, C29A U69G U76A: 0.26; C29U U51A U69A U80C: 0.2. U31C A56U U58A: the self-cleavage stood at 0.15. Next, U31A C40A U41C U60G: 0.09; G30C C37U A45G U54C U80C: 0.08. With U31A A35G U43A A47G, the self-cleavage worked out at 1.17. Take U31A C40U U51C: the self-cleavage amounted to 0.24.

Turning to U31A A47G U49G A56G, the self-cleavage came out at 0.22. As for C29U A65G A75U, the self-cleavage turned out to be 0.27. Take C29A U54A G63A U69C: the self-cleavage was found to be 0.17. For U31A A35G C38U U72G, the self-cleavage came out at 1.27. Next, U31C A56U U72A: 0.17; U31C A56U U72C: 0.24; G30A A45U A47G: 0.11. As for G30U U41C U78C, the self-cleavage was determined as 0.25. Take U31A C39A U69A: the self-cleavage worked out at 0.17.

As for C29U A47G U58A, the self-cleavage is 0.16. Next, U31A U41C U72C: 0.59. Next, G30U A47G U66A: 0.1; U31A G55U A57G A64G U69C C71U: 0.1.

On to G30U A35G U58C, for which the self-cleavage was 0.09. Consider U31C A35G U54C, for which the self-cleavage was found to be 1.19. Turning to U31C A64U U72A, the self-cleavage was 0.18. Next, C29G U31G C40U U41A A47G U49A: 0.09. As to U31A G36A U60C A65U, the self-cleavage was found to be 0.05. Regarding G30U A35U U48C U54A, the self-cleavage was 0.13. Turning to U31C A45C U58C A65G G73C, the self-cleavage was 0.09. As to G30A A45G U74A U80C, the self-cleavage is 0.42.

Turning to G30U A65G U72G, the self-cleavage was found to be 0.1.

On to C29U G33U C37G C38U A57G A75U, for which the self-cleavage came out at 0.07. With U31A U60A U69G, the self-cleavage turned out to be 0.15. The figure for U31A C34G U41C G52A is 0.09; for G30U U41C U72A it is 0.05. G30A C50U G73U: the self-cleavage was 0.21. Next, U31A U43C U69C A77C: 0.15; U31C A35G U67A: 0.55. Consider C29A U49C U51A A77G U78C, for which the self-cleavage was 0.16. The figure for G30C U31C A35U is 0.13; for C29U G61A A65G U78C it is 0.05; for U31A U51A U67C it is 0.17. C29A U72C A77U U80A: the self-cleavage is 0.59.

As to U31A U41A U54C C62U C81U, the self-cleavage is 0.14. Regarding U31A U43C A64G U69A, the self-cleavage amounted to 0.14. Next, C29U A64G U78A: 0.27. In the case of U31C A64U C68U, the self-cleavage was found to be 0.43. The figure for G30C U67C G73C is 0.19; for C29G C37U G42U it is 0.12; for C29G U51C A77G it is 0.07. As to U31A A47G C81U, the self-cleavage amounted to 0.22. With U31C A35G C37G, the self-cleavage was 0.31. In the case of C29G C38A U58C A64U, the self-cleavage came to 0.15. Next, C29U U31A A35U A56G A75G: 0.15; U31A C34G U51C U66C: 0.09. C29U U31C U51A U80C: the self-cleavage was 0.31. Next, C29U U43A U54A G70A U78C: 0.17. With G30U A35U U74C, the self-cleavage is 0.17. Next, U31C A35G U74C: 1.18; U31A U51A A56G A57G: 0.21.

Regarding U31C A35U A45C G53A U54G U69C, the self-cleavage was found to be 0.08. For the variant U31A U41G U43C A57G A64U U72C A75G, the self-cleavage worked out at 0.01. Turning to U31C A35G C40G U54C A64G, the self-cleavage came out at 0.21. Next, U31A A47U U48A A57G U67C: 0.37; C29G U60C U67C: 0.08.

Turning to C29U A57G U60C, the self-cleavage is 0.34.

Take U31A U67C U74A: the self-cleavage turned out to be 0.14.

On to U31A C40U U49G U51C U66C U69A, for which the self-cleavage was 0.06. Next, U31A A45U U67C: 0.12; G30A U41G A64G G73A U78C: 0.29; C29U U54A A65G: 0.22. The figure for G30A U41G G53A A56G is 0.11. Next, U31A U43C G53A: 0.47; U31A U41C A57U C59A U78G: 0.07; C29U U48C A56U: 0.05. With U31A G52U A57G U66C, the self-cleavage worked out at 0.15. The figure for U31A U41C A45G U67C U69C is 0.14; for U31A G33U U60A A77U it is 0.13; for U31C A35G U60A it is 0.66. The figure for U31A U48C A64G is 0.39; for U31A C40G U58C it is 0.1. As to G30A U69A U80C, the self-cleavage stood at 0.22. As for C29U U49A U54C U78C, the self-cleavage turned out to be 0.13.

As for C29G U31A U54A, the self-cleavage amounted to 0.3.

For the variant G30A U43C A47G U48C A56U U69C, the self-cleavage stood at 0.05. Take U31A U72G U78A: the self-cleavage was 0.73. As for U31C A45U A47U U51A A57G U67C A75U, the self-cleavage was found to be 0.04. In the case of U31A U41C U48C U67C U80C, the self-cleavage worked out at 0.12. Next, U31A A45U G53U U60C U80C: 0.35; U31C A47G U49A A77U: 0.15. For U31A C40A U60A, the self-cleavage came to 0.16. As to U31A C38A U54C, the self-cleavage came to 0.11. The figure for C29U U78C U80C is 0.21; for U31C A45U U72C U78A it is 0.29; for U31C A35G U66G it is 0.88. Take U31C A35U A45U U51G G53A U54G U76C: the self-cleavage turned out to be 0.13. Consider U31C A57G U74C, for which the self-cleavage turned out to be 1.31. Next, C29U A45G U72C: 0.48; C29U U49A U69C A75G A77G: 0.11; C29A U66C U69C: 0.16. Next, U31C A45C U80C: 0.2; G30U G52U U78C: 0.1.

With C29U C44G G46U, the self-cleavage came out at 0.14. Next, C29U U49C U72C: 0.26. As to G30A C34U A45C U49A U78C, the self-cleavage amounted to 0.14.

With G30A U41A U67C, the self-cleavage is 0.4. In the case of C29U A57C U69C U72A, the self-cleavage stood at 0.13. Next, G30A G52A A57U: 0.54; G30A A35G U48C A64G U69C: 0.11. Next, C29U U54A U72C U78C U80C: 0.79; U31A G70C U80C: 0.21; U31A U41A A57G U60A: 0.11.

For U31C A56U A57G U69A U80C, the self-cleavage worked out at 0.08.

Turning to U31C A45G U54G U76C, the self-cleavage was 0.33. Next, C29U A35G A57G: 0.47.

As for G30A A35G A57G U58C A77G, the self-cleavage came out at 0.1.

With U31A A65C U72A U78C, the self-cleavage stood at 0.09. With C29G C40G U69C U72A, the self-cleavage came to 0.12.

Turning to U31A U54C C79A, the self-cleavage was found to be 0.48. Turning to C29A U54A C62U U69C, the self-cleavage amounted to 0.12. The figure for U31A U41C U43A U80A is 0.14; for U31A A45G U51A A56G A57G U67A it is 0.06. Next, U31A A35U U43C A57G: 0.15; G30U U41A U49C G52A U80C C81U: 0.07. Next, U31C A45C U69C: 0.09.

On to G30U U43C A56G U60C, for which the self-cleavage turned out to be 0.37. As for C29U U60C U67C, the self-cleavage stood at 0.42. Take C29U U69G U80C: the self-cleavage was 0.2. For the variant G30A A35G A45G U49C, the self-cleavage worked out at 0.07.

As to C29U A45G A57U U58C C62U, the self-cleavage is 0.07. Turning to U31C A45U A57G A64U C71A U72C, the self-cleavage was 0.11. Consider C29A U51A A65G, for which the self-cleavage is 0.26. Turning to G30C U41A U43A U78C, the self-cleavage was determined as 0.06. The figure for C29U A47U G61A U74A is 0.24. For the variant U31A G33A U67C, the self-cleavage is 0.07.
